From PubChem BioAssay AID743255 (National Center for Advancing Translational Sciences (NCATS), 2014)
In all, about 390,000 compounds went through this assay and about 910 (0.23%) were called active. Not shown: some 5% with an inconclusive outcome. Calls follow the shape of the dose curve; as a rule, active = well fitted inhibition curve with a large enough effect; inconclusive = small, poorly fitted or top-dose-only effect; inactive = no such curve, though single readings can be large or run the other way. The entries are a selection whose mix differs from that of the whole data set.

Each molecule was assayed against Ubiquitin carboxyl-terminal hydrolase 1 (Homo sapiens) (UniProt O94782) (assay: Inhibitors of USP1/UAF1: Primary Screen). Settings: recombinant USP1/UAF1, Ub-Rhodamine cleavage fluorescence; activity change, negative = inhibition: at 57.1 µM (top of the series).
UniProt O94782, sequence (O94782 whole entry, looked up): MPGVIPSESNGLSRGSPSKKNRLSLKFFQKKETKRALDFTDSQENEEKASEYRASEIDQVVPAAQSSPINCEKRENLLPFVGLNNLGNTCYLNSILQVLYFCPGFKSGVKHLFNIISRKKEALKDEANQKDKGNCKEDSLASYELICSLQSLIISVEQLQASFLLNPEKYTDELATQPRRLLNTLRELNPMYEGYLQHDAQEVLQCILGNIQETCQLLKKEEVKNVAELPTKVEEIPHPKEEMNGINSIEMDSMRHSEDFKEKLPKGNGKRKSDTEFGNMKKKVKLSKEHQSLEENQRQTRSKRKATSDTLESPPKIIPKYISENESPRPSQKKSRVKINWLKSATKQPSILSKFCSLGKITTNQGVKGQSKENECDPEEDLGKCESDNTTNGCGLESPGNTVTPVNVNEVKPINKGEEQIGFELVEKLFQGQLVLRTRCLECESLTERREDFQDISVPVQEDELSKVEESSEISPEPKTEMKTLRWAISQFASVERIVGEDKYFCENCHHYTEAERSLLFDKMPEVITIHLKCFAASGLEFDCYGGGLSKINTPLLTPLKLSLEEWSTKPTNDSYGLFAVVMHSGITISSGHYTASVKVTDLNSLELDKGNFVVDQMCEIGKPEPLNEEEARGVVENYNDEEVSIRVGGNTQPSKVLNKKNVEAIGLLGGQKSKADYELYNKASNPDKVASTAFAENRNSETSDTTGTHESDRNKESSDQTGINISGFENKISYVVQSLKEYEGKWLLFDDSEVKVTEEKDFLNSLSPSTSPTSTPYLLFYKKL
In short: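 Step one: compound is pinned into 1nM USP1/UAF1 in HEPES pH 7.8 buffer with TCEP. Step two: 15 min room-temperature incubation. Step three: Ub-Rho (150nM final) starts cleavage, tracked by fluorescence over six one-minute reads.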
% is scaled to controls: 0 for no effect and ±100 for the full control effect; potency is read from the fitted curve at half-maximal effect.
Also: nearly all actives have a fitted effect of over 60% in size.

| Compound | Potency | activity change, negative = inhibition |
| --- | --- | --- |
| Cc1c(N=C2C=CC(=O)c3ccccc32)c(=O)n(-c2ccccc2)n1C | active: 31.6 µM |  |
| C[C@H]1CN([C@@H](C)CO)C(=O)CCCn2nncc2CO[C@H]1CN(C)C(=O)c1ccc(N2CCN(C)CC2)cc1 |  | inactive: -17.9% |
| CC(=O)N1C(=O)C(=C2C=C(C)OC(C)=C2)c2ccccc21 |  | inactive: 153% |
| CC(C)(C)OC(=O)N[C@H](C(=O)OC(C)(C)C)c1ccc(Br)cc1 |  | inactive: -24.4% |
| C[C@@H]1CN([C@H](C)CO)C(=O)CCCn2nncc2CO[C@@H]1CN(C)S(=O)(=O)c1ccc2c(c1)OCCCO2 |  | inactive: -19.5% |
| COc1ccc(NS(=O)(=O)c2ccc3c(c2)[C@H]2C=CC[C@H]2[C@@H](c2ccc(C(=O)O)cc2)N3)cc1 |  | inactive: -27% |
| O=C1C=C(NCc2ccccc2)c2ccccc2C1=O | active: 2.51 µM |  |
| CCC(=O)Oc1ccc2c(c1)O/C(=C\c1ccco1)C2=O |  | inactive: 90.3% |
| O=C(C[C@H]1C/C=C\CC[C@H](Cc2ccc(F)cc2)C(=O)OC[C@@H]2CCCN2C1=O)N[C@H](CO)Cc1ccccc1 |  | inactive: -22.9% |
| C[C@H]1CN([C@@H](C)CO)C(=O)CCCn2nncc2CO[C@@H]1CN(C)Cc1ccccc1C(F)(F)F |  | inactive: -6.2% |
| Cc1ccc(C(=O)Nc2cccc(C(F)(F)F)c2)cc1NC(=O)c1csc(-c2ccncc2)n1 |  | inactive: -22% |
| Fc1ccc(-c2nnn3c2nc(NCc2ccccc2)c2ccccc23)cc1 |  | inactive: -1.28% |
| CC(=O)C[C@H](O)CC(=O)[C@@H]1OC(=O)CCCCCCc2ccccc21 |  | inactive: -22.6% |
| C=CC[C@@H](Cc1ccc(F)cc1)C(=O)OC[C@H]1CCCN1C(=O)[C@@H](CC=C)CC(=O)N[C@@H](CO)Cc1ccccc1 |  | inactive: -32% |
| Fc1ccc(Nc2c3c(nc4ccccc24)CCC3)cc1 |  | inactive: -14.5% |
| Oc1ccc2ccccc2c1-c1sc(Nc2ccccc2)n[n+]1-c1ccc(F)cc1 |  | inactive: 265% |
| O=C(O)c1ccc(S(=O)(=O)/N=C2\C=C(Nc3ccccc3F)C(=O)c3ccccc32)cc1 | active: 2.51 µM |  |
| COc1cccc(NC(=O)CSc2nc3ccccc3nc2N2CCOCC2)c1 |  | inactive: -19.8% |
| C=CCC[C@H](Cc1ccc(F)cc1)C(=O)OC[C@@H](Cc1c[nH]c2ccccc12)NC(=O)[C@H](CC=C)CC(=O)NCCO |  | inactive: -36.5% |
| CC[C@@H]1C/C=C\Cc2ccccc2[C@@H](C(=O)C[C@H](O)CC(C)=O)OC1=O |  | inactive: -24.8% |
| O=C1N[C@@H](c2ccccc2)COC(=O)[C@H](Cc2ccc(F)cc2)CC/C=C/C[C@@H]1CC(=O)N(CCO)Cc1ccccc1 |  | inactive: -14.4% |
| CC(=O)Nc1ccc(NC2=C/C(=N/S(=O)(=O)c3cccs3)c3ccccc3C2=O)cc1 | active: 15.8 µM |  |

| Compound | Potency | activity change, negative = inhibition |
| --- | --- | --- |
| CN(C)c1ccc(C=c2c3cc(O)ccc3n3c2cc(-c2ccccc2)[n+]3C)cc1 | active: 28.2 µM |  |
| O=C(OCCN1C(=O)c2cccc3c(N4CCOCC4)ccc(c23)C1=O)c1ccc(Cl)cc1 |  | inactive: 477% |
| COc1cc(OC)c(NC2=CC(=O)C(=O)c3ccccc32)cc1Cl | active: 17.8 µM |  |
| COc1ccccc1NC(=O)N(C)C[C@@H]1OCc2cn(nn2)CCCC(=O)N([C@@H](C)CO)C[C@H]1C |  | inactive: -18.9% |
| CC(C)(C)OC(=O)C[C@@H]1C/C=C\C[C@H](CC(=O)N(CCO)Cc2ccccc2)C(=O)N[C@H](C(C)(C)C)COC1=O |  | inactive: 5.11% |
| C[C@@H]1CN([C@H](C)CO)C(=O)CCCn2nncc2CO[C@H]1CN(C)Cc1ccccc1 |  | inactive: -0.0087% |
| CC(=O)n1cc([C@@H]2C=C(C(=O)Nc3ccccc3)O[C@H](OCc3ccc(CO)cc3)C2)c2ccccc21 |  | inactive: -26.1% |
| O=C(N=c1ccn(-c2nc3ccccc3nc2NS(=O)(=O)c2ccccc2)cc1)c1cccs1 |  | inactive: 123% |
| O=C1Nc2ccc(Br)cc2/C1=N/N=C/C1=C(N2CCOCC2)C(=C\c2ccccc2)/CC1 |  | inactive: -13.2% |
| COc1ccc(S(=O)(=O)Nc2cccc(-c3ccc(N4CCCCCC4)nn3)c2)cc1OC |  | inactive: -16.4% |
| COc1cccc(S(=O)(=O)N(C)C[C@H]2OCc3cnnn3CCCC(=O)N([C@H](C)CO)C[C@H]2C)c1 |  | inactive: -19.4% |
| COC(=O)CCC(=O)OC1(C)C(=O)C2=CN(C3CCCC3)C(c3ccc(OC)cc3)=CC2=C(Br)C1=O (stereo not drawn) | active: 25.1 µM |  |
| COc1ccc(S(=O)(=O)/N=C2\C=C(NS(=O)(=O)c3ccccc3)C(=O)c3ccccc32)cc1 | active: 15.8 µM |  |
| CC[C@H]1C/C=C\Cc2ccccc2[C@H](C(=O)C[C@@H](O)CC(C)=O)OC1=O |  | inactive: -17% |
| Cc1ccc(NS(=O)(=O)c2ccc3c(c2)n(C)c(=O)n3C)c(C)c1 |  | inactive: -13.7% |
| COc1ccc(NC(=O)c2ccco2)cc1NC(=O)c1ccccc1[N+](=O)[O-] |  | inactive: 0.904% |
| CCOc1ccc(NC(=O)/C(C#N)=C/c2ccc(N3CCCC3)c(C)c2)cc1 |  | inactive: -24.7% |
| Cc1cccc2c(N=Nc3ccccc3)c(O)[nH]c12 |  | inactive: 120% |
| Cc1ccc(C(=O)N/C(=C/C=C/c2ccccc2)C(=O)NCc2ccco2)cc1 |  | inactive: -6.26% |
| N#Cc1ccc(-c2cccnc2)nc1SCC(=O)c1ccccc1 |  | inactive: 92.3% |
| COc1cc2c3nnc(-c4ccc(F)cc4)c-3cn(Cc3cccc(C)c3)c2cc1OC | active: 31.6 µM |  |
